SMILES strings stand for the structures. In all, about 52,000 compounds went through this assay and about 1,700 (3.3%) were called active. No stated cut-off is given here; in the data, active means survival mostly below about 52% (no sharp cut-off); inactive means mostly above about 56%. Some of the results follow.

In this test the test system is Wild type. Nature of the test: growth inhibition of S. aureus wild type versus tarO mutant, primary screen, teichoic acid synthesis inhibitors, RN4220, OD600 (AID 463173). The settings on record: S. aureus RN4220 wild type/DeltatarO growth, OD600, 18 h, active compounds read low, screened at 18.75 µg/mL (by protocol).
Consider `Cc1cc(C)cc(NC(=O)C2CCN(C(=O)c3cnn(-c4ccccc4)c3-n3cccc3)CC2)c1`, for which the survival is inactive: 83%.
Turning to `CC1CCn2c(nc3cc(C(=O)NCc4ccc(F)cc4)ccc32)C1` (stereo not given), the survival was inactive: 82%.
`CCOc1nc(NC(=O)NS(=O)(=O)Oc2cccc(Cl)c2)nc(-c2ccccc2)n1`: the survival was inactive: 70%.
As for `O=C(Nc1ccc(F)c(F)c1)c1cc(S(=O)(=O)NCc2ccc3c(c2)OCO3)ccc1F`, the survival is inactive: 98%.
Then `CCCCC(=O)Nc1nnc(SCc2cc(=O)n3cc(C)ccc3n2)s1`, with inactive: 63%.
On to `CN1C(=S)NC(C)(C)CC1(C)O` (stereo not given), for which the survival is inactive: 102%.
For the compound `CCOC(=O)c1nn2c(C(F)(F)F)cc(-c3ccc(C)cc3)nc2c1Cl`, the survival is inactive: 79%.
With `Cc1ccc(CNC(=O)CSc2nc(=O)n(Cc3ccco3)c3c2CCC3)cc1`, the survival was inactive: 74%.
For `COc1ccc(-c2c(C#N)c(SCC(=O)Nc3ccc(C)cc3)nc(C)c2C(=O)Nc2ccccc2)cc1`, the survival is inactive: 94%.
As for `O=C(O)CCSc1nnnn1-c1ccccc1`, the survival is inactive: 114%.
Consider `COc1cccc(CNC(=O)CN2CCCN(Cc3ccccc3)S2(=O)=O)c1`, for which the survival was inactive: 74%.
Consider `Cc1ccn2c(Nc3ccc4c(c3)OCO4)c(-c3ccc(Cl)cc3)nc2c1`, for which the survival is inactive: 80%.
For the compound `COc1ccc(C2=NC3(CCCCCC3)N(CC(=O)Nc3cccc(Cl)c3)C2=O)cc1`, the survival was inactive: 81%.
In the case of `CCOc1ccc(-n2nc3ccc(NC(=O)c4cccc(F)c4)cc3n2)cc1`, the survival is inactive: 96%.
With `OCCCc1n[nH]c(=S)n1-c1ccccc1`, the survival was inactive: 103%.
`CCSc1nc2c([nH]c3ccccc32)c(=O)n1-c1cccc(OC)c1`: the survival was inactive: 75%.
As for `COc1cccc(NC(=O)Cn2c(=O)ccc3cc(S(=O)(=O)N4CCC(C)CC4)ccc32)c1`, the survival is inactive: 73%.
With `COc1ccc(-c2csc(NCCCN(C)C)n2)cc1`, the survival was inactive: 103%.
As to `CCOc1ccc(-c2nnc(SCC(=O)NC(C)CC)nc2-c2ccc(OCC)c(OC)c2)cc1OC` (stereo not given), the survival was inactive: 60%.
For the compound `COc1ccc(-c2nc3ccccc3o2)cc1NC(=O)c1ccc(-c2ccc(Br)cc2)o1`, the survival is inactive: 73%.
Turning to `COc1cc(C(=O)Nc2cccc(OCc3cc(=O)n4cc(C)sc4n3)c2)cc(OC)c1OC`, the survival is inactive: 90%.
For the compound `CC(=O)Nc1nonc1-c1nnc(SCC(=O)Nc2cccc(C)c2C)n1-c1ccccc1`, the survival is inactive: 86%.
Regarding `COc1ccc(Cn2cc(C(=O)c3ccc(F)cc3)c(=O)c3cc4c(cc32)OCCO4)cc1`, the survival is inactive: 83%.
As for `Cc1nn(C)c(C)c1CCNC(=O)Nc1cccc(Cl)c1C`, the survival is inactive: 63%.
Then `CCCCNc1ccc(-c2nc(-c3ccncc3)no2)cc1[N+](=O)[O-]`, with inactive: 68%.

For the origin of these results see PubChem BioAssay AID463173 (ICCB-Longwood Screening Facility, Harvard Medical School, 2010).
